# Assay results published in PubChem BioAssay AID2675 (National Center for Advancing Translational Sciences (NCATS), 2010).
# Out of some 280,000 compounds screened, about 100 (0.036%) were called active. Inconclusive means that the source gave no clear call. Such entries were picked first, then a sample of the others. The call rests on the fitted dose curve; in most records, active means well fitted inhibition curve with a large enough effect in the signal ratio, with a control signal flat (not every such curve was filed as active); inconclusive means small, poorly fitted or top-dose-only effect, or effect the other way, or a change in a side signal; inactive means no such curve, though single readings can be large or run the other way; the % refers to the signal ratio. A potency beside an inconclusive call is a rough fit, not a confirmed value. “Side channel” marks fits to a control or component signal instead of the main read-out.
# Biological target: Muscleblind-like protein 1 (Homo sapiens) (UniProt Q9NR56)
# Chain of UniProt Q9NR56 (Q9NR56 whole entry, looked up): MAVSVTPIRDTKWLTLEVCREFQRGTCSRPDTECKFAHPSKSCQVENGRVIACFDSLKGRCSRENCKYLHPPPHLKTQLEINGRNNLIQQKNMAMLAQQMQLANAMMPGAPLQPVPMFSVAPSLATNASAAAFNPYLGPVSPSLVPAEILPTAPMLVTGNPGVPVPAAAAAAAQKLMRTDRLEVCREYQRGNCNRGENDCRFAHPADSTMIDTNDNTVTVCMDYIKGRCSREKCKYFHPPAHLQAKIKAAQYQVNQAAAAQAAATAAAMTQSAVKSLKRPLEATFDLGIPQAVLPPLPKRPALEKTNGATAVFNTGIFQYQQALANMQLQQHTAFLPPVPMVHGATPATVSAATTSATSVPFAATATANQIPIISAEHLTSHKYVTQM
# Assay: qHTS Assay for Inhibitors of MBNL1-poly(CUG) RNA binding
# Conditions: TR-FRET MBNL1-His/biotin-(CUG)12 binding, 665/545 ratio; activity change, negative = inhibition: at 57.5 µM (top of the series)
# Summary of the method: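 TR-FRET between His-tagged MBNL1 and biotin-(CUG)12 RNA, detected with Tb anti-His antibody (0.055 ng/ul) and streptavidin-XL665 (5 nM), 60 min at room temperature. Compounds titrated 92 nM to 58 uM; 665/545 nm ratio normalized to buffer and complex controls.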
# On the % scale 0 is the no-effect control and ±100 the full control effect; potency means the concentration at half of the fitted maximal effect; tags describe the fitted curve by direction and shape or compound fluorescence and quenching.
Structure (SMILES),Potency,"activity change, negative = inhibition"
CCn1c2ccccc2c2cc(/C=N/NC(=O)c3ccncc3)ccc21,"inconclusive: 39.8 µM [quencher, single point]",
O=c1c(OC2OC(CO)C(O)C(O)C2OC2OC(CO)C(O)C(O)C2OC2OC(CO)C(O)C(O)C2O)c(-c2ccc(O)c(O)c2)oc2cc(O)cc(O)c12 (stereo unspecified),"inconclusive: 35.5 µM [quencher, side channel, single point]",
CC(C)COC(=O)c1ccc2c(c1O)C(=O)c1ccccc1C2=O,"inconclusive: 3.16 µM [quencher, side channel, full curve]",
Cc1oc2c(cc(NS(=O)(=O)c3ccc4c5c(cccc35)C(=O)N4)c3ccccc32)c1C(=O)OC(C)C,"inconclusive: 25.1 µM [quencher, side channel, single point]",
O=C(CNC(=O)c1cccs1)N/N=C/c1ccco1,"inconclusive: 14.1 µM [quencher, side channel, partial curve]",
Cn1c(N2CCCC2)nc2c1c(=O)n(Cc1ccc(Cl)cc1)c(=O)n2C,inactive,
Cc1cc(OC(=O)c2ccco2)c(Sc2ccccc2[N+](=O)[O-])c(=O)o1,"inconclusive: 31.6 µM [quencher, side channel, partial curve]",
O=C(c1ccccc1Br)N1CCN(c2ccccn2)CC1,inactive,
O=C(Nc1ccccc1)C1COc2ccccc2O1 (stereo unspecified),inactive,
COc1ccc(/C=N/NC(=O)c2ccccc2O)cc1Cn1cc(Cl)cn1,"inconclusive: 31.6 µM [quencher, side channel, single point]",
COCC(=O)Nc1ccc(-c2cn3cccnc3n2)cc1,"inconclusive: 15.8 µM [quencher, partial curve]",
Cc1ccc(C(=O)C[n+]2cccc3cc(C)ccc32)cc1,"inconclusive: 15.8 µM [quencher, side channel, partial curve]",
CN(CCCC(=O)NC1CC(C)(C)NC(C)(C)C1)S(=O)(=O)c1ccc([N+](=O)[O-])cc1,"inconclusive: 14.1 µM [quencher, side channel, partial curve]",
COc1ccc(N2C(=O)CC(c3ccc([N+](=O)[O-])cc3)C2=O)cc1 (stereo unspecified),"inconclusive: 15.8 µM [quencher, side channel, partial curve]",
C/C=C/C=C/C(=O)N1CC2(CC(c3cccc(NC(=O)/C=C/C)c3)=NO2)C[C@@H]1C(N)=O (stereo partly specified),"inconclusive: 39.8 µM [quencher, side channel, single point]",
CCCNC(=S)Nc1ccc(CC(=O)OC)cc1,inactive,
CC1CCC(=O)N(CCOc2ccccc2)CC1 (stereo unspecified),inactive,
COc1ccc(-c2cc3cccc(OC)c3oc2=O)cc1,"inconclusive: 14.1 µM [quencher, side channel, partial curve]",
Cc1ccc(S(=O)(=O)NCC(=O)NCC(=O)OCc2c(F)cccc2Cl)cc1,"inconclusive: 5.01 µM [quencher, side channel, partial curve]",
CN1CCN(CCCNC(=O)c2cc3c(-c4ccc(Cl)cc4)nn(C)c3s2)CC1,inactive,
CCc1ccc[n+](-c2nc3ccccc3nc2C(=C=[N-])C#N)c1,"inconclusive: 15.8 µM [quencher, side channel, partial curve]",

Structure (SMILES),Potency,"activity change, negative = inhibition"
O=C(Cn1nc(-c2ccc(Cl)cc2)ccc1=O)NCC1CCCO1 (stereo unspecified),"inconclusive: 20 µM [quencher, side channel, single point]",
COc1ccc(/C=C/C(=O)c2ccccn2)cc1,"inconclusive: 31.6 µM [quencher, side channel, single point]",
Cn1cc(C(=O)N/N=C/C=C/c2ccccc2)ccc1=O,"inconclusive: 25.1 µM [quencher, side channel, partial curve]",
O=C(NN1CCOCC1)c1ccc(Cl)c([N+](=O)[O-])c1,"inconclusive: 11.2 µM [quencher, side channel, partial curve]",
CCCCCOC(=O)C1=C(C)N(C)C(=O)NC1c1cc(Br)c(O)c(OC)c1 (stereo unspecified),inactive,
CCOC(=O)Cn1c(=O)c(-c2ccccc2N)nc2ccccc21,"inconclusive: 0.251 µM [quencher, side channel, full curve]",
CC1(C)CC(=O)c2sc(NS(=O)(=O)Cc3ccccc3)nc2C1,inactive,
Cc1ccc(-c2cn3cccnc3n2)cc1NC(=O)c1c(-c2ccccc2Cl)noc1C,"inconclusive: 17.8 µM [quencher, partial curve]",
O=C(NC(=S)Nc1ccccc1N1CCOCC1)c1ccc(-c2cccc(Cl)c2)o1,"inconclusive: 39.8 µM [fluorescent, side channel, partial curve]",
Cc1c(Br)c([N+](=O)[O-])nn1CC(=O)NCc1ccccn1,"inconclusive: 25.1 µM [quencher, side channel, single point]",
CC1=NN(C(N)=S)C(=O)C1N=Nc1ccc(C)cc1C (stereo unspecified),"inconclusive: 17.8 µM [quencher, side channel, partial curve]",
COc1ccc(C(=O)NC(=S)Nc2cccnc2)cc1[N+](=O)[O-],"inconclusive: 3.16 µM [quencher, side channel, single point]",
Cc1ccccc1Nc1nnc(SCC(=O)Nc2ccccc2[N+](=O)[O-])s1,,inconclusive: 28.8% [phenotype inactive]
COc1ccc(CNC(=O)COc2cccnc2[N+](=O)[O-])cc1OC,"inconclusive: 14.1 µM [quencher, side channel, partial curve]",
CC(C)(C)OC(=O)N[C@H](Cc1ccccc1)C(=O)N1CCC[C@@H]1C(=O)O,inactive,
CCCN1CCN(CCCNC(=O)c2cc3c(=O)[nH]c4ccccc4c3s2)CC1,"inconclusive: 31.6 µM [quencher, side channel, partial curve]",
CC1CC[C@@]2(OC1)O[C@H]1CC3[C@@H]4C[C@@H](O)[C@@]5(O)C[C@@H](O)[C@H](O)C[C@]5(C)[C@H]4CC[C@]3(C)[C@H]1[C@@H]2C (stereo partly specified),inactive,
O=[N+]([O-])c1cccc(-c2nc3ccccc3s/c2=N/O)c1,"inconclusive: 10 µM [quencher, side channel, partial curve]",
Nc1c(C(=O)N2CCOCC2)sc2nc3c(cc12)CCCC3,"inconclusive: 25.1 µM [quencher, side channel, partial curve]",
O=c1c2ccccc2oc2ccc(NCCCn3ccnc3)cc12,"inconclusive: 17.8 µM [quencher, side channel, partial curve]",
COc1ccc(C(=O)Nc2ccccc2)cc1NC(=O)c1ccc([N+](=O)[O-])cc1,"inconclusive: 8.91 µM [quencher, side channel, partial curve]",

Structure (SMILES),Potency,"activity change, negative = inhibition"
O=C(COc1ccccc1)NC1CCCCCCC1,inactive,
COc1ccc([N+](=O)[O-])cc1-n1cnnn1,"inconclusive: 11.2 µM [quencher, side channel, partial curve]",
CCOc1ccc(C2C=C(c3ccc(F)cc3)Nc3ncnn32)cc1 (stereo unspecified),"inconclusive: 22.4 µM [quencher, side channel, single point]",
Cc1ccc(N2CC(C(=O)NCCS(=O)(=O)N3CCN(c4ccc(F)cc4)CC3)CC2=O)cc1 (stereo unspecified),inactive,
Cc1ccc(-c2csc3nc[nH]c(=O)c23)cc1,inactive,
O=C1CCCN1c1ccc(S(=O)(=O)N2CCCCC2)cc1[N+](=O)[O-],"inconclusive: 25.1 µM [quencher, side channel, single point]",
O=C(N/N=C\c1cn[nH]c1-c1ccccc1)c1ccc([N+](=O)[O-])cc1,"inconclusive: 2.82 µM [quencher, side channel, partial curve]",
COc1cc(C(=O)N/N=C/c2cc([N+](=O)[O-])cs2)cc(OC)c1OC,"inconclusive: 5.62 µM [quencher, side channel, partial curve]",
O=C1NN(c2ccccc2)C(=O)/C1=C\c1ccccc1,inactive,
Cc1nnc(N(Cc2ccco2)C(=O)c2cccc(C#N)c2)s1,inactive,
CC1CCCN(c2c([N+](=O)[O-])c(=O)oc3ccccc23)C1 (stereo unspecified),"inconclusive: 0.126 µM [quencher, side channel, full curve, poor fit]",
CC(=O)Nc1ccc(NS(=O)(=O)c2ccc(C)cc2)c([N+](=O)[O-])c1,"inconclusive: 14.1 µM [quencher, side channel, partial curve]",
O=C(Nc1ccccc1)ON=C1CCCC1,"inconclusive: 0.1 µM [fluorescent, side channel, full curve, poor fit]",
COC(=O)N1C(=O)[C@@](CC(C)C)(c2ccccc2)N1C(=O)OC,inactive,
Cc1ccc(C(=O)NC(=S)NCc2ccccc2)cc1,inactive,
CCOc1cc(C(=O)Nc2cccc3ncccc23)cc(OCC)c1OCC,"inconclusive: 8.91 µM [quencher, side channel, single point]",
COCc1cc(C)nc2sc(C(=O)Nc3nccs3)c(N)c12,"inconclusive: 20 µM [quencher, side channel, partial curve]",
O=C(Nc1ccccc1C(=O)N1CCN(CCO)CC1)c1cccc([N+](=O)[O-])c1,"inconclusive: 7.94 µM [quencher, side channel, partial curve]",
COc1cc(/C=C2\SC(=Nc3ccccc3OC)NC2=O)ccc1O,"inconclusive: 15.8 µM [quencher, side channel, partial curve]",
